Experimental data: article PMC4336329 (PLoS ONE, 2015)
Out of some 310,000 compounds screened, about 2,200 (0.71%) showed an effect of 50% or more. Effects have a minus sign here. The list shows a part of the results.

These compounds were tested against human ether-à-go-go-related gene (hERG) potassium channel (human, UniProt Q12809) (assay: primary screen, population patch clamp on CHO cells stably expressing hERG).
Sequence of human ether-à-go-go-related gene (hERG) potassium channel (Q12809 whole entry, looked up): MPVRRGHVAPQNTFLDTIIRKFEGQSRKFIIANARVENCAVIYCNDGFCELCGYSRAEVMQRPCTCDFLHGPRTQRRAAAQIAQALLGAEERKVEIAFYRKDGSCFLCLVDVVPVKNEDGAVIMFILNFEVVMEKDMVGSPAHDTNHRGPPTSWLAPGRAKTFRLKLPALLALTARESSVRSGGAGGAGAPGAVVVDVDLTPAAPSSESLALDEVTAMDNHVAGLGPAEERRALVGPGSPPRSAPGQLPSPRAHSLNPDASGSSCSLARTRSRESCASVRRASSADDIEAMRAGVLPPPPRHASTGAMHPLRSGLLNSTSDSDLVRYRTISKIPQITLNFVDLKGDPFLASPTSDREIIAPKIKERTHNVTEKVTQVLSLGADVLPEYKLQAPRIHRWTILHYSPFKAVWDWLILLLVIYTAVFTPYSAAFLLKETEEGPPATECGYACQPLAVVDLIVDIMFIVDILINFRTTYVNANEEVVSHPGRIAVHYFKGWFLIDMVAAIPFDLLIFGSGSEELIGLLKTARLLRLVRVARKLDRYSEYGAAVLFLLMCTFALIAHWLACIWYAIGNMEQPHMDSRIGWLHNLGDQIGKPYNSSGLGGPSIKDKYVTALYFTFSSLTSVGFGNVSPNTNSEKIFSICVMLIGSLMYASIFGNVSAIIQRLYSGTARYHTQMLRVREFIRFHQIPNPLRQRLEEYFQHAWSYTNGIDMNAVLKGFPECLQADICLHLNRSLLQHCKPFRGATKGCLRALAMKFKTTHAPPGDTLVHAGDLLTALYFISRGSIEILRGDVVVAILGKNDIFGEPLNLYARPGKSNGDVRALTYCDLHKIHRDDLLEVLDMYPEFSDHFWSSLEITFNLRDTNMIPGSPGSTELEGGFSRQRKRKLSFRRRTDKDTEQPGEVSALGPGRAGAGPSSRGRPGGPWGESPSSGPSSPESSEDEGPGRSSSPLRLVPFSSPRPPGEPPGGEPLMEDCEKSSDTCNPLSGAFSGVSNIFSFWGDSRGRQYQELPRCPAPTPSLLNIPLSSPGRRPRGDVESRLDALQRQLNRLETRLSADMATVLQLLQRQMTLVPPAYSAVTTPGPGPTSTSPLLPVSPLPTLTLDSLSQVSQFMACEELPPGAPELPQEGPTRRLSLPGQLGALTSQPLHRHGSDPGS
In the case of `CC(C)Oc1ccc2nnnn2n1`, the “hERG current change (%, negative = inhibition) at 1uM” value is reported as 10.4%. With `Cc1cc2c(nn1)CCc1nonc1-2` the “hERG current change (%, negative = inhibition) at 1uM” value was 4.35%. With `Cc1nc(CS(=O)(=O)c2ccccn2)sc1C(=O)NNC(=O)c1ccc(Cl)cc1` the “hERG current change (%, negative = inhibition) at 1uM” value was 8.65%. For `NC(=O)c1ccc(NC(=O)C2CCCC2)cc1`, the “hERG current change (%, negative = inhibition) at 1uM” value was 15.2%. In the case of `CCCN(Cc1cc2ccc(C)cc2[nH]c1=O)S(=O)(=O)c1ccccc1`, the “hERG current change (%, negative = inhibition) at 1uM” value is reported as 12.1%. For `CC(C)Cc1nnc(NC(=O)CCC(=O)NC2CCCCC2)s1`, the “hERG current change (%, negative = inhibition) at 1uM” value was 17.2%. In the case of `Cc1cc(C)nc(SCc2csc(N)n2)n1`, the “hERG current change (%, negative = inhibition) at 1uM” value is reported as 12.4%. `CCOC(=O)C1CCN(S(=O)(=O)c2ccc3c(c2)N(C)C(=O)CC(=O)N3C)CC1` was tested, and the “hERG current change (%, negative = inhibition) at 1uM” value was -0.306%. With `CC(O)Cn1nc([N+](=O)[O-])nc1N` (centres unmarked) the “hERG current change (%, negative = inhibition) at 1uM” value was 9.07%. `CCN1CCC(O)(C#Cc2ccccc2)CC1` was tested, and the “hERG current change (%, negative = inhibition) at 1uM” value was 12.6%. In the case of `Cc1ccc(CS(=O)(=O)CCC(=O)NCCCN2CCCC2)cc1`, the “hERG current change (%, negative = inhibition) at 1uM” value is reported as 15.8%. In the case of `O=C(Nc1ccc(Cl)cc1C(=O)NCc1cccnc1)c1ccco1`, the “hERG current change (%, negative = inhibition) at 1uM” value is reported as 12.6%. `COCCCn1c(SCC(=O)Nc2cccc(C(=O)OC)c2)nnc1-c1ccncc1` was tested, and the “hERG current change (%, negative = inhibition) at 1uM” value was 5.52%. For `Cc1c(C(=O)Nc2nc3ccccc3[nH]2)oc2ccccc12`, the “hERG current change (%, negative = inhibition) at 1uM” value was 9.01%. In the case of `CCc1nnc(NC(=O)CSc2nnc(CNC(=O)c3ccc(OC)c(OC)c3)o2)s1`, the “hERG current change (%, negative = inhibition) at 1uM” value is reported as 4.52%. With `CC(=O)Nc1ccc2nc(NC(=O)COc3ccccc3)sc2c1` the “hERG current change (%, negative = inhibition) at 1uM” value was 11.5%. In the case of `COc1ccc(-c2cnnc(N/N=C/c3ccc(O)c(OC)c3)n2)cc1`, the “hERG current change (%, negative = inhibition) at 1uM” value is reported as -12.8%. `CC(C)SCCCOc1ccc(C(C)(C)C)cc1` was tested, and the “hERG current change (%, negative = inhibition) at 1uM” value was 13%. For `O=C(CSc1nc2ccccc2c(=O)n1Cc1ccc(F)cc1)NCc1cccs1`, the “hERG current change (%, negative = inhibition) at 1uM” value was 2.36%. In the case of `Cc1noc(C)c1COC(=O)c1cc2c(C)nn(-c3ccc(F)cc3)c2s1`, the “hERG current change (%, negative = inhibition) at 1uM” value is reported as 9.23%. In the case of `COc1ccc(S(=O)(=O)N2CCCCC2)cc1NC(=O)CN1CCN(C(C)=O)CC1`, the “hERG current change (%, negative = inhibition) at 1uM” value is reported as 4.05%. With `C#CCOCCOCCOCCNc1nc(N2CCN(C(=O)[C@H]([C@@H](C)CC)n3cc(CCCC[NH3+])nn3)CC2)nc(N2CCN(C(=O)[C@H]([C@@H](C)CC)n3cc(CCC[NH+]=C(N)N)nn3)CC2)n1.[Cl-]` the “hERG current change (%, negative = inhibition) at 1uM” value was 10.3%. With `O=C1OC(C(=O)Nc2nccs2)Cc2ccccc21` (centres unmarked) the “hERG current change (%, negative = inhibition) at 1uM” value was 9.74%. With `O=C1C2C3C=CC(CC3)C2C(=O)N1c1ccccc1F` (centres unmarked) the “hERG current change (%, negative = inhibition) at 1uM” value was 14.5%. In the case of `O=[N+]([O-])c1cccnc1N1CCCCC1`, the “hERG current change (%, negative = inhibition) at 1uM” value is reported as 7.05%. `O=C(c1c(F)cccc1F)N1CCC(O)(c2cccnc2)CC1` was tested, and the “hERG current change (%, negative = inhibition) at 1uM” value was 9.09%. For `O=Cc1ccccc1OCCCOc1cccc2cccnc12`, the “hERG current change (%, negative = inhibition) at 1uM” value was 8.66%. In the case of `Cn1c(SCc2ccc(F)cc2)nnc1-c1ccccn1`, the “hERG current change (%, negative = inhibition) at 1uM” value is reported as 11.1%. In the case of `CCCOC1CCCN(C(=O)CCc2nnc(-c3ccc4c(c3)OCO4)o2)C1` (centres unmarked), the “hERG current change (%, negative = inhibition) at 1uM” value is reported as 19.9%. In the case of `CC(NC(=O)c1ccco1)c1nc(-c2ccccc2Cl)no1` (centres unmarked), the “hERG current change (%, negative = inhibition) at 1uM” value is reported as 8.16%. For `O=C(NS(=O)(=O)Oc1ccc(F)cc1F)OC[C@@H]1CCCN2CCCCC12` (some centres unmarked), the “hERG current change (%, negative = inhibition) at 1uM” value was 17.3%. `CC(C)Nc1cc(C(F)(F)F)nc(-c2ccccn2)n1` was tested, and the “hERG current change (%, negative = inhibition) at 1uM” value was 4.87%. In the case of `CC[C@H](C)C(C(=O)N1CCN(C(=O)OC(C)(C)C)CC1)n1cc(C(Cc2ccc(O)cc2)NC(=O)OC(C)(C)C)nn1` (some centres unmarked), the “hERG current change (%, negative = inhibition) at 1uM” value is reported as 9.57%. For `COc1ccccc1NC(=O)C(C)N1CCN(C/C=C/c2ccccc2)CC1` (centres unmarked), the “hERG current change (%, negative = inhibition) at 1uM” value was -75.2%. For `O=c1[nH]c(=S)n(C2CC2)c(O)c1C=NCCN1CCOCC1`, the “hERG current change (%, negative = inhibition) at 1uM” value was 14.5%. For `CCOc1cc(N2CCOCC2)c(OCC)cc1NC(=O)COC(=O)[C@H](Cc1c[nH]c2ccccc12)NC(C)=O`, the “hERG current change (%, negative = inhibition) at 1uM” value was 4.98%. With `O=S(=O)(c1ccc(Br)cc1)N1CCN=C1SCc1cccc(F)c1` the “hERG current change (%, negative = inhibition) at 1uM” value was 10.9%. In the case of `COc1cc(OC)c(C2=NOC(C(=O)N3CCc4ccccc4C3)C2)cc1Cl` (centres unmarked), the “hERG current change (%, negative = inhibition) at 1uM” value is reported as -13.7%. For `CN(C(=O)COC(=O)c1cccc(S(=O)(=O)N(C)c2ccccc2)c1)C1CCCCC1`, the “hERG current change (%, negative = inhibition) at 1uM” value was 8.94%. In the case of `COc1cc(C(=S)N2CCN(C(c3ccccc3)c3ccccc3)CC2)cc(OC)c1O`, the “hERG current change (%, negative = inhibition) at 1uM” value is reported as 17%. In the case of `Cc1ccc(/C(N)=N/OC(=O)C(C)c2ccc([N+](=O)[O-])cc2)cc1` (centres unmarked), the “hERG current change (%, negative = inhibition) at 1uM” value is reported as 10.6%. For `CCCCc1ccc(/C=C2\C(=O)ON=C2c2ccccc2)s1`, the “hERG current change (%, negative = inhibition) at 1uM” value was 3.78%. `CCCCC(C(=O)OCC(=O)c1ccc(OC)cc1)N1C(=O)c2ccccc2C1=O` (centres unmarked) was tested, and the “hERG current change (%, negative = inhibition) at 1uM” value was 14.5%. `COc1cccc(NS(=O)(=O)c2ccc3[nH]cc(C(=O)NCCCOC(C)C)c(=O)c3c2)c1` was tested, and the “hERG current change (%, negative = inhibition) at 1uM” value was 9.42%. `C/C(CC1(O)C(=O)Nc2ccccc21)=N\O` (centres unmarked) was tested, and the “hERG current change (%, negative = inhibition) at 1uM” value was 24%. With `COc1ccc(S(=O)(=O)NCCc2nnc3ccc(SCC(=O)Nc4nc(C)cs4)nn23)cc1` the “hERG current change (%, negative = inhibition) at 1uM” value was 14.9%. In the case of `Cc1ccccc1-c1noc(C(C)NC(=O)c2ccco2)n1` (centres unmarked), the “hERG current change (%, negative = inhibition) at 1uM” value is reported as 13.6%. For `CC(C)(C)c1cc(NC(=O)c2cccs2)no1`, the “hERG current change (%, negative = inhibition) at 1uM” value was 7.63%. For `CCn1c(CC(=O)Nc2ccccc2C)nnc1SCC(=O)Nc1nncs1`, the “hERG current change (%, negative = inhibition) at 1uM” value was 16.1%. For `C=CCNC(=O)c1ccc2nc(Cc3ccc(OC)cc3)oc2c1`, the “hERG current change (%, negative = inhibition) at 1uM” value was 12.1%. For `Cc1ccc(Nc2cc(C)nc3ccccc23)c(C)c1`, the “hERG current change (%, negative = inhibition) at 1uM” value was -1.59%. For `COc1ccc(NC(=O)Cn2ncn3nc(-c4ccc(OC)cc4)cc3c2=O)cc1`, the “hERG current change (%, negative = inhibition) at 1uM” value was 30.1%. For `CN1CC(=O)N(CC(=O)NCc2ccc(F)cc2)c2ccccc2C1=O`, the “hERG current change (%, negative = inhibition) at 1uM” value was 12.8%. In the case of `COc1ccc(C(=O)NCCCN=C2NS(=O)(=O)c3ccccc32)cc1`, the “hERG current change (%, negative = inhibition) at 1uM” value is reported as 10.2%. With `COc1ccc(C(=O)NNC(=O)c2cc3cccc(OC)c3oc2=O)cc1` the “hERG current change (%, negative = inhibition) at 1uM” value was 12.8%. `O=C(NCCOc1ccccc1)C1Nc2ccc(OC(F)(F)F)cc2C2C=CCC12` (centres unmarked) was tested, and the “hERG current change (%, negative = inhibition) at 1uM” value was 0.456%.
